Out of some 48,000 compounds screened, about 450 (0.94%) were called active. Not shown: some 19% with an inconclusive outcome. Calls follow the shape of the dose curve; as a rule, active = well fitted inhibition curve with a large enough effect; inconclusive = small, poorly fitted or top-dose-only effect; inactive = no such curve, though single readings can be large or run the other way. The list shows a part of the results.
Test: Primary qHTS for Identification of Small Molecule Inhibitors of Huntingtin Promoter Activity; also: nearly all actives have a fitted effect of over 50% in size
Details: HEK293 HTT promoter firefly luciferase reporter (activity 0% = vehicle and -100% = no light), 24 h; series mostly up to 57.5 µM; activity change, negative = inhibition: at the top concentration
How it was run: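 Firefly luciferase signal from promoter-reporter HEK293 cells was scaled between vehicle (0%) and zero RLU (-100%). Compounds were tested at final concentrations of up to 57.5 uM over 24 h at 37 degrees C. PTC124 at 50 uM final served as control inhibitor.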
Potency is read from the fitted curve at half-maximal effect.

Compound	activity change, negative = inhibition	Potency
O=C(c1ccc(F)cc1)n1nc(-c2cccnc2)nc1NCc1ccccc1	inactive: -26.2%	
COc1ccc(-n2ccnc(NCCc3ccccc3)c2=O)cc1OC	inactive: -44.6%	
CC(C)(C)c1ccc(C(=O)Nc2c(C(=O)c3ccc(F)cc3)oc3ccccc23)cc1	inactive: 0.435%	
Cc1nn(C(C)C(=O)Nc2ccccc2C(F)(F)F)c(=O)c2c1sc1ccccc12 (stereo unspecified)	inactive: -1.7%	
Cc1nc2nc(CNC(=O)c3cccc(F)c3)nn2c(C)c1CCC(=O)Nc1cccc(Cl)c1	inactive: 5.71%	
Cc1ccc(N(CC(C)C)S(=O)(=O)c2nnc(NC(=O)C(C)C)s2)cc1	inactive: 1.94%	
COc1ccccc1CNC(=O)COCc1cc(-c2cccs2)on1	inactive: -26.8%	
COc1ccc(Cl)cc1NC(=O)c1cnc2sc(N3CCOCC3)nn2c1=O	inactive: -2%	
Cc1ccc(CNC(=O)c2cnc3c(-c4ccc(F)cc4)c(C)nn3c2C)o1	inactive: -21.7%	
CN1CCN(CCNC(=O)c2cnn(-c3ccc(Cl)cc3)c2C2CCN(C(=O)OC(C)(C)C)CC2)CC1	inactive: -8.16%	
CCOc1ccc(-c2nonc2NC(=O)c2oc3ccc(CC)cc3c2C)cc1	inactive: 1.76%	
CCN(C(=O)C1CCN(S(=O)(=O)c2c(C)noc2/C=C/c2ccc(C)cc2)CC1)c1cccc(C)c1	inactive: -5.45%	
CCC(=O)N1CCc2cc(S(=O)(=O)NC(Cc3ccccc3)C(=O)O)ccc21 (stereo unspecified)	inactive: -0.131%	
COc1ccc(NC(=O)CSc2nc3ccccc3c(=O)n2CCC(=O)NC2CCCCC2)c(OC)c1	inactive: 0%	
O=C(CCCCCn1c(=O)c2sccc2n(Cc2ccccc2Cl)c1=O)NCc1ccc2c(c1)OCO2	inactive: -2.73%	
Cc1ccc(S(=O)(=O)Nc2ccc3nc(-c4cccc(Cl)c4)oc3c2)cc1	inactive: -21%	
COc1ccc(CCNC(=O)C(C)n2nc(C)c3sc4ccccc4c3c2=O)c(OC)c1 (stereo unspecified)	inactive: -12.9%	
O=C(O)CCC(=O)Nc1ccc(S(=O)(=O)Nc2nccs2)cc1	inactive: -8.42%	
Cc1ccc(-c2nc(CS(=O)CC(=O)NCCc3ccc(Cl)cc3)c(C)o2)cc1 (stereo unspecified)	inactive: -25.9%	
COc1cc(NC(=O)C2Cc3ccccc3N2C(=O)c2ccccc2)cc(OC)c1 (stereo unspecified)	inactive: -8.81%	
CCOc1ccc(-n2nc(CO)c(C(=O)NCC(C)O)n2)cc1 (stereo unspecified)	inactive: 1.98%	
COc1ccc(OCCn2nnc3sc4c(c3c2=O)CCCC4)cc1	inactive: 8.33%	
COc1ccc(N2CCN(c3ncnc4c3nnn4C)CC2)cc1	inactive: -23.9%	
COC(=O)c1cc2sccc2n1CC(=O)Nc1cc(Cl)ccc1OC		active: 28.2 µM

Compound	activity change, negative = inhibition	Potency
CCOC(=O)C1CCN(c2ncnc3c2c(-c2ccccc2)cn3-c2ccc(Cl)cc2)CC1	inactive: -11.8%	
CCOC(=O)c1c(C)[nH]c(C)c1S(=O)(=O)NCC(=O)NCc1ccccc1C	inactive: -14.8%	
COc1cnc(NS(=O)(=O)c2ccc(N)cc2)nc1	inactive	
CCOc1ccccc1CNS(=O)(=O)c1cc(-c2onc(C)c2C)ccc1OC	inactive: -22.5%	
Cc1ccc(NC(=O)Cn2c(=O)n(CCCCC(=O)NCc3ccc4c(c3)OCO4)c(=O)c3ccccc32)cc1	inactive: -18.4%	
CCC(=O)N1c2ccccc2CC1C(=O)N1CCN(c2ccccc2F)CC1 (stereo unspecified)	inactive: 4.03%	
N#Cc1c(C(F)(F)F)cc(-c2cccs2)nc1SCc1ccccc1F	inactive: -21.1%	
Clc1ccccc1CSc1nc(NCCc2ccccc2)c2ccccc2n1	inactive: -6.16%	
CCOc1ccccc1Nc1sc(C(=O)c2ccc(Cl)cc2)c(N)c1S(=O)(=O)c1ccccc1	inactive: -18.4%	
O=C(O)CCn1c2c(c3ccccc31)C[C@H](NS(=O)(=O)c1ccc(F)cc1)CC2	inactive	
O=C(CSc1ncc2c(n1)-c1ccccc1N(Cc1ccc(Cl)cc1)S2(=O)=O)c1ccccc1	inactive: -15.6%	
CCN(Cc1ccccc1)C(=O)Cn1ncc2c(=O)oc3ccc(C)cc3c21	inactive: 1.1%	
Cc1cccc(N2CCN(C(=O)c3ccc4c(c3)N(Cc3cccc(Cl)c3)C(=O)c3ccccc3S4(=O)=O)CC2)c1C	inactive: -12.1%	
CCOc1ccc(NC(=O)CCc2nnc3n(C)c(=O)c4sccc4n23)cc1	inactive: -6.03%	
COc1ccccc1NC(=O)Cn1ccn(-c2cc(C)cc(C)c2)c(=O)c1=O	inactive: -5.68%	
Cc1ccc(S(=O)(=O)C(CNS(=O)(=O)c2ccc(F)c(C(F)(F)F)c2)c2ccco2)cc1 (stereo unspecified)	inactive: -10.9%	
CC(CNC(=O)C1CCN(C(=O)c2cc3sccc3n2C)CC1)c1ccccc1 (stereo unspecified)	inactive: -14.8%	
CCOc1ccc(CNCc2c(C(=O)O)n(Cc3ccccc3C)c3cc(OC)ccc23)cc1OC	inactive: -15.4%	
CCOc1cccc(NC(=O)C2CC(=O)N(C)C(=Nc3ccc(OC)cc3)S2)c1 (stereo unspecified)	inactive: -21.3%	
Cn1nc(C(=O)NCc2ccccc2)c2c1-c1ccccc1S(=O)(=O)C2	inactive: -17.1%	
CCOc1ccc(-n2c(=O)c3c(C)c(C(=O)N(C)C)sc3n(Cc3cc(C)ccc3C)c2=O)cc1	inactive: -8.19%	
Cc1ccc(S(=O)(=O)C(CNC(=O)C(=O)NCc2ccc(Cl)cc2)c2ccco2)cc1 (stereo unspecified)	inactive: -21.9%	
CCOc1ccccc1CNC(=O)c1oc2ccc3c(c2c1C)C(=O)CC(C)(C)O3	inactive: 10.7%	
O=c1c2sc3ccccc3c2n(Cc2ccc(F)cc2Cl)c(=O)n1Cc1ccccc1	inactive: -7.19%	

Compound	activity change, negative = inhibition	Potency
COC(=O)c1ccc2nc(C)cc(Nc3cccc(Cl)c3C)c2c1	inactive: -26.1%	
COCC(=O)Nc1c(C(=O)Nc2ccc(C)cc2)oc2ccccc12	inactive: 32.1%	
Cc1ccc2oc(-c3ccc(C)c(NC(=O)c4ccc(-c5ccccc5[N+](=O)[O-])o4)c3)nc2c1	inactive: -2.48%	
CCn1cc(S(=O)(=O)c2ccc(Cl)cc2)c(=O)c2cc(F)c(N3CCOCC3)cc21	inactive: 4.26%	
CCN(CC)S(=O)(=O)c1ccc(N2CCCCS2(=O)=O)cc1	inactive: 6.75%	
Cc1ccc(CNC(=O)CN2C(=O)CCc3cc(S(=O)(=O)N4CCCCC4)ccc32)cc1	inactive: -3.66%	
CCOC(=O)c1ccc(-c2ccc(/C=C(\C#N)C(=O)Nc3ccc(C)cc3)o2)cc1	inactive: -2.27%	
Cc1ccc(CCNC(=O)CCn2nc(-c3ccc(C)cc3)ccc2=O)cc1	inactive: -1.37%	
COC(=O)c1ccc2c(=O)n(CCCCCC(=O)N3CCN(c4ccc(Cl)cc4)CC3)c(=O)[nH]c2c1	inactive: 1.17%	
CCN(CC)CCSc1nnc2c3cc(F)ccc3n(CC)c2n1	inactive: -11.1%	
COc1ccccc1CNC(=O)Cn1c(=O)nc(-c2ccccc2)c2ccccc21	inactive: -2.86%	
CCCSc1nnc2c(n1)OC(c1cccs1)Nc1ccc(Br)cc1-2 (stereo unspecified)	inactive: -9.86% [at 11.5 µM]	
Oc1c(C(c2ccccc2F)N2CCCC2)sc2nc(-c3ccco3)nn12 (stereo unspecified)	inactive: 0%	
CNCCC(Oc1ccccc1OC)c1ccccc1 (stereo unspecified)	inactive: 8.84%	
O=C(NCCc1ccccc1)c1ccc(CS(=O)(=O)c2ccc(Cl)cc2)o1	inactive: -8.63%	
CCc1ccc(N(CC)C(=O)Cn2cnc3sc(C)c(S(=O)(=O)N4CCN(c5ncccn5)CC4)c3c2=O)cc1	inactive: -8.37%	
CCCOc1ccccc1C1C(C(=O)Nc2ccccc2)=C(C)Nc2nnnn21 (stereo unspecified)	inactive: -25.2%	
Cc1cccc(S(=O)(=O)c2cn(C)c3cc(N4CCC(C)CC4)c(F)cc3c2=O)c1	inactive: -10.9%	
CCC(=O)N1c2ccc(S(=O)(=O)CCC(=O)NCc3cccc(OC)c3)cc2CC1C (stereo unspecified)	inactive: -0.407%	
O=C(NCc1ccccc1Cl)c1nnc(Cc2ccc(Cl)cc2)o1	inactive: 0.359%	
Cc1cccc(CSc2ccc(-c3cccs3)nn2)c1	inactive: 50.5%	
COc1ccc(-c2noc(CSc3nnc(C)n3-c3ccc(C)c(C)c3)n2)c(OC)c1	inactive: -27.6%	
COc1ccc(-c2nc(SCC(=O)NCCc3ccccc3)n[nH]2)cc1	inactive: -13.2%	
Cc1ccc2onc(CC(=O)N3CCN(c4ccccc4)CC3)c2c1	inactive: -14.4%	

Compound	activity change, negative = inhibition	Potency
COc1ccccc1O	inactive: 4.88% [at 116 µM]	
CCOc1ccc(NC(=O)C(C)n2c(=O)cc(C)c3c(C)nn(-c4ccccc4)c32)cc1 (stereo unspecified)	inactive: 0%	
CCc1ccc(OCC(=O)Nc2ccc3c(c2)c2ccccc2n3CC)c(Br)c1	inactive: -12.7% [at 11.5 µM]	
N#C/C(=C\c1cc(Br)c(O)c(Br)c1)c1nc2ccccc2c(=O)[nH]1	inactive: -15.5%	
CCc1ccc(NC(=O)CSc2ncc(S(=O)(=O)c3cc(C)ccc3C)c(=O)[nH]2)cc1	inactive: -6.26%	
O=C(O)Cc1cn(-c2ccccc2)nc1-c1ccc(Cl)cc1	inactive: -2.71%	
COc1ccc(CC(=O)NC2CC(=O)N(c3ccc(C)c(C)c3)C2)cc1OC (stereo unspecified)	inactive: -23.7%	
Cc1cccc2sc(N(Cc3cccnc3)C(=O)C3COc4ccccc4O3)nc12 (stereo unspecified)	inactive: 26.8%	
Cc1ccc(CNC(=O)CN2C(=O)C3(SCC(=O)N3c3ccc(F)c(F)c3)c3ccccc32)cc1 (stereo unspecified)	inactive: 3.16%	
O=NN(CCCl)C(=O)NC1CCCCC1	inactive	
CCOC(=O)C(Cc1ccccc1)NC(=O)CCc1c(C)nc2c(c(C)nn2-c2ccc(C)c(C)c2)c1C (stereo unspecified)	inactive: -13.3%	
COC(=O)c1ccccc1NC(=O)C1CCCN(c2nnc(C)c3c(C)n(-c4ccccc4)nc23)C1 (stereo unspecified)	inactive: 16.4%	
COc1ccc(OCC(=O)NCC(c2ccc(OC)cc2)N2CCOCC2)cc1 (stereo unspecified)	inactive: -6.26%	
Cc1cc(NC(=O)C(C)(C)C)cc(-c2nc3ncccc3o2)c1O	inactive: -11.1%	
Cc1cc(NC(=O)c2cnc3c(-c4ccccc4)c(C)nn3c2C)ccc1Br	inactive: -23%	
Cc1cccc(N2CCN(C(=O)CN3C(=O)COc4ccc(S(=O)(=O)N5CCCC5)cc43)CC2C)c1 (stereo unspecified)	inactive: -24.9%	
CCn1c(SCC(=O)c2ccccc2)nnc1-c1cccc(Cl)c1	inactive: 0.805%	
CCc1c(CN2CCN(c3ccccc3F)CC2)csc1C	inactive: -2.41%	
Cc1ccc(/C=C/c2onc(C)c2S(=O)(=O)N2CCC(C(=O)NCc3ccc(OC(C)C)cc3)CC2)cc1	inactive: -19.5%	
COc1ccc(-c2c(C)c3ccc(O)c(CN4CCCC4)c3oc2=O)cc1	inactive: 3.98%	
COc1cccc(CNCCSc2nnnn2-c2ccccc2)c1OC	inactive: -13.6%	
COc1ccc(-c2cc(C(F)(F)F)n3nc(C(=O)Nc4cc(C)ccc4C)cc3n2)cc1	inactive: -17.4% [at 11.5 µM]	
Cc1ccc2c(c1)c1c3n2CCN(C(=O)c2ccc(C(F)(F)F)cc2)C3CCC1 (stereo unspecified)	inactive: -6.56%	
CCOC(=O)c1sc2ccccc2c1S(=O)(=O)N1CCN(c2cc(C)ccc2C)CC1	inactive: 0%	

Source: PubChem BioAssay AID1508623 (National Center for Advancing Translational Sciences (NCATS), 2021)
